Experimental data taken from PubChem BioAssay AID1347165 (National Center for Advancing Translational Sciences (NCATS), 2019).
In all, about 220,000 compounds went through this assay and about 5,700 (2.6%) were called active. The inconclusive results got no clear call from the source; some entries with a clear call stand among them for comparison. The call rests on the fitted dose curve; in most records, active means well fitted inhibition curve with a large enough effect; inconclusive means small, poorly fitted or top-dose-only effect; inactive means no such curve, though single readings can be large or run the other way. Potencies beside an inconclusive call are fits to weak or partial responses and may not hold up.

Each molecule was assayed against Lysine-specific demethylase 5B (Homo sapiens) (UniProt Q9UGL1) (assay: Primary screen for KDM5B Histone Demethylases FDH-coupled qHTS). Settings: FDH-coupled NADH fluorescence (FDH is formaldehyde dehydrogenase); activity change, negative = inhibition: at 57.7 µM (top of the series) unless noted.
Outline: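 Here, H3K4me3 peptide (12.5 µM in substrate mix) is demethylated by KDM5BΔAP, 200 nM final, after 10 min compound exposure. Formaldehyde product is coupled through FDH (0.25 U/mL in mix) to NADH fluorescence; 30-min ΔRFU feeds dose-response curves.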
Further: nearly all actives have a fitted effect of over 70% in size.
Potency means the concentration at half of the fitted maximal effect; tags describe the fitted curve by direction and shape.
Wherever activity change, negative = inhibition is given: 0% is about no effect.

Sequence of UniProt Q9UGL1 (Q9UGL1 whole entry, looked up): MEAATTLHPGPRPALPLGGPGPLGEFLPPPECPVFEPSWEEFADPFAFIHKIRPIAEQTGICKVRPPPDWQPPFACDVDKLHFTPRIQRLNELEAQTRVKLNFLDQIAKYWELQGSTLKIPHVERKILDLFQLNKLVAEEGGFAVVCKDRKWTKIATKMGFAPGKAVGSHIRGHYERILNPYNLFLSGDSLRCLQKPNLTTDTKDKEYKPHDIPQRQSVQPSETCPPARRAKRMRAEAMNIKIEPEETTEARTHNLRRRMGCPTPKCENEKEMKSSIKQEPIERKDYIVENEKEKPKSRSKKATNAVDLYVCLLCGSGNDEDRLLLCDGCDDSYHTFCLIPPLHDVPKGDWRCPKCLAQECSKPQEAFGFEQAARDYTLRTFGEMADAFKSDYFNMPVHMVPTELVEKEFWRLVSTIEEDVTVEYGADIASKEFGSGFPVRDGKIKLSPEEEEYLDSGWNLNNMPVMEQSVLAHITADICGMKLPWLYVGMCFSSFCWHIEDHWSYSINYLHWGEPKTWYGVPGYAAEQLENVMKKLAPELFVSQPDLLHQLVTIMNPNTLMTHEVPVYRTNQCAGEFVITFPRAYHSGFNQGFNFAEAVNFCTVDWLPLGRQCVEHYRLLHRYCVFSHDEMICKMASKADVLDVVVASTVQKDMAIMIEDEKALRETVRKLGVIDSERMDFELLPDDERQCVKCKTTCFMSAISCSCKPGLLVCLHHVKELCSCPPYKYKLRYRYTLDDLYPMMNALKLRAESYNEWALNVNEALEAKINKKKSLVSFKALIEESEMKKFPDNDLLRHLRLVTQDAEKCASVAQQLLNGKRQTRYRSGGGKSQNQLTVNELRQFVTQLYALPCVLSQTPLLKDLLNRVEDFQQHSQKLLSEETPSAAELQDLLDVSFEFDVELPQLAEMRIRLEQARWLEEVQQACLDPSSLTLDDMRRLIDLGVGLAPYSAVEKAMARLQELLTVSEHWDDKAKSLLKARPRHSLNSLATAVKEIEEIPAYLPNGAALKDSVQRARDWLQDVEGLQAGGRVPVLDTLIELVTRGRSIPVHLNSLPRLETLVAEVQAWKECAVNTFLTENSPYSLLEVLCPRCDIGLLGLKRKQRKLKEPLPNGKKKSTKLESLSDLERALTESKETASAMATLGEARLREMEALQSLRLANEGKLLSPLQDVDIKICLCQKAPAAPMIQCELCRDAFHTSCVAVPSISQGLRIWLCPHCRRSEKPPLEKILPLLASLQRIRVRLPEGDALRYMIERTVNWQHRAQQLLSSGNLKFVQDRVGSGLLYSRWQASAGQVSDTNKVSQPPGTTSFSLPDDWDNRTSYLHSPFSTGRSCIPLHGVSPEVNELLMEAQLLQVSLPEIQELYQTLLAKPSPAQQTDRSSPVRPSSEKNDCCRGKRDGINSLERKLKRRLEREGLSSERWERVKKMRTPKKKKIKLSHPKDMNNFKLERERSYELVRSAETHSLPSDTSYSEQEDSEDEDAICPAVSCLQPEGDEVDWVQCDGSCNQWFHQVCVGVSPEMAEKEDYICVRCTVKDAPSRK

Row | SMILES | Potency | activity change, negative = inhibition
1 | CN(CCO)c1cccc2c1S(=O)(=O)N(Cc1cn(Cc3cccc(C(F)(F)F)c3)nn1)Cc1ccccc1O2 | inconclusive: 39.8 µM [inhibitor, single point] | 
2 | CCN(CC)c1ccc(NC(=O)CN2CCN(S(=O)(=O)c3ccc(C(C)C)cc3)CC2)cc1 | inconclusive: 25.1 µM [inhibitor, partial curve, poor fit] | 
3 | CCOc1ccc(N2C(=O)c3[nH]nc(-c4ccccc4)c3C2c2ccc(O)c(OC)c2)cc1 (stereo unspecified) | inconclusive: 39.8 µM [inhibitor, single point] | 
4 | COCC(=O)N1CCC(N2C[C@H](O)C[C@H]2C(=O)NC2CCCCC2)CC1 | inconclusive: 31.6 µM [inhibitor, partial curve, poor fit] | 
5 | O=C(NCc1ccco1)NNc1nc2c(-c3ccccc3)nnn2c2ccccc12 | inconclusive: 31.6 µM [inhibitor, partial curve, poor fit] | 
6 | COc1ccc(-n2cc(C(=O)NCCc3ccc(C)cc3)c3ccccc3c2=O)cc1 | inconclusive: 25.1 µM [inhibitor, partial curve, poor fit] | 
7 | O=C(c1cn(Cc2ccccc2)nc1-c1ccc(Cl)cc1)N1CCN(CCO)CC1 | inconclusive: 39.8 µM [inhibitor, single point] | 
8 | CC(C)NC(=O)CNC(=O)c1cc2cc(F)ccc2[nH]1 | inconclusive: 28.2 µM [inhibitor, partial curve, poor fit] | 
9 | O=c1cc(-c2ccccn2)oc2c(NCc3ccc(F)cc3)nccc12 | inconclusive: 39.8 µM [inhibitor, partial curve, poor fit] | 
10 | Cc1ccc(C(=O)C(C)OC(=O)c2nn(C)c(=O)c3ccccc23)cc1C (stereo unspecified) |  | inactive: -5.29%
11 | COc1ccc(-c2cc(C[C@H]3CNCC[C@H]3CC(=O)N3CCOCC3)no2)cc1 |  | inactive: 14.8% [at 86.2 µM]
12 | CCN1CCc2[nH]cnc2C12CCN(C(=O)c1cccc3nccnc13)CC2 | inconclusive: 14.1 µM [inhibitor, partial curve, poor fit] | 
13 | O=C(Nc1ccc(F)cc1)c1ccn2nccc2c1 | inconclusive: 25.1 µM [inhibitor, partial curve] | 
14 | Cc1ccnc(N2CCC(c3nnc(-c4ccc(F)cc4)o3)CC2)n1 | inconclusive: 31.6 µM [inhibitor, partial curve, poor fit] | 
15 | Cc1cccc(NC(=O)c2cc(-c3cccnc3)nc3c(C)cccc23)n1 | inconclusive: 20 µM [inhibitor, partial curve, poor fit] | 
16 | Cc1ccc(CNc2nc(-c3cccs3)nn2C(=O)CC(C)C)o1 | inconclusive: 25.1 µM [inhibitor, partial curve, poor fit] | 
